# From publication PMC6919601, “Identification of Plasmodium dipeptidyl aminopeptidase allosteric inhibitors by high throughput screening” (PLoS ONE, 2019)
# About 230 (0.21%) of roughly 110,000 compounds showed an effect of 50% or more. Some of the results follow.
# Molecular target: DPAP1 (Plasmodium falciparum, UniProt Q8IIJ9)
# Assay: primary screen, percent inhibition; read by cleavage of a fluorogenic dipeptide substrate; higher = more effect of the substance
# Set-up: species or system P. falciparum D10 trophozoite lysates; single well
# 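Note: 30 min substrate incubation versus DMSO and 10 µM JCP410 controls.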
# Sequence of DPAP1 (Q8IIJ9 whole entry, looked up): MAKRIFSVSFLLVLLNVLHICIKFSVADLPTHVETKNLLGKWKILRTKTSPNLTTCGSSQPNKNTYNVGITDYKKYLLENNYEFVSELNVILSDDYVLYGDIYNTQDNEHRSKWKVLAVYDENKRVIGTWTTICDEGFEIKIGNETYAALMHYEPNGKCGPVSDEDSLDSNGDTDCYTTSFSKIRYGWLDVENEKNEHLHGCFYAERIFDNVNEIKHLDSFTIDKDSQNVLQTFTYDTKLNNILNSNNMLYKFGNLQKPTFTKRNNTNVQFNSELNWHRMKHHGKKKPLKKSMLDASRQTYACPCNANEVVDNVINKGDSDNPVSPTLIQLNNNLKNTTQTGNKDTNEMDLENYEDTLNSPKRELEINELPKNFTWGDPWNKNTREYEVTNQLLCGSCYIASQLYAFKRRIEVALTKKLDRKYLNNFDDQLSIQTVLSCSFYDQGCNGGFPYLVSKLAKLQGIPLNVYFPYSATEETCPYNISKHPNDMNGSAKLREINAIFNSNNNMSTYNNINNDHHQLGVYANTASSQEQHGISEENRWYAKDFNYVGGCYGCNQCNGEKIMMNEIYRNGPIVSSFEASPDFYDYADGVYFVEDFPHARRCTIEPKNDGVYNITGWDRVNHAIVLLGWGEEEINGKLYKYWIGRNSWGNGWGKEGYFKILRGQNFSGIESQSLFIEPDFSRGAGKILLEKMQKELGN
row,Structure (SMILES),% Inhibition @ 10 uM [%]
1,CCc1ccc(OCCCC(=O)Nc2ccccc2OC)cc1,0.13
2,COc1cc(/C=C2\C(=O)NC(=S)N(c3cccc(Cl)c3)C2=O)ccc1O,3.61
3,CCCn1c(=N)c(S(=O)(=O)c2ccc(C)cc2)cc2c(=O)n3cccc(C)c3nc21,-6.92
4,O=C(Nc1nc(-c2ccc(F)cc2)cs1)c1cccnc1,-7.3
5,O=C(NCCc1ccc2c(c1)OCO2)c1ccc(F)cc1,1.96
6,O=c1oc2cc(S(=O)(=O)N3CCCCC3)ccc2c2ccc(S(=O)(=O)N3CCCCC3)cc12,-1.82
7,CC(C)(CO)NCc1cccc(OCc2ccc(Cl)cc2Cl)c1,-8.33
8,N#Cc1sc2nc(-c3ccccc3)c3c(c2c1N)CCCC3,-0.969
9,Cc1nc(C(=O)Nc2ccc(Cl)cc2)c(C(=O)NC(C)C)nc1C,-1.96
10,CCc1ccc(C(C)NC(=O)c2ccc3c(c2)OCO3)cc1 (stereo not drawn),-0.63
11,CCOC(=O)c1[nH]c2ccccc2c1NC(=O)C1c2ccccc2OC2C=CC=CC21 (stereo not drawn),-0.58
12,Cn1c(-c2ccccc2)nc2c(c1=O)C1(CCCC1)Cc1ccccc1-2,-1.02
13,COc1cc(C2c3c(oc4ccccc4c3=O)C(=O)N2Cc2ccc3c(c2)OCO3)ccc1O (stereo not drawn),-1.33
14,Fc1cccc(Cl)c1CNCCCSc1nnnn1-c1ccccc1,0.596
15,CCc1ccc(-c2nc(CN3CCC(C(=O)NCc4ccc(C)cc4)CC3)c(C)o2)cc1,3.99
16,O=C(CCN1C(=O)c2cccc3cccc(c23)C1=O)NCc1cccnc1,8.66
17,COCCNC(=O)C1CC(=O)N(CCc2ccccc2)C1 (stereo not drawn),-0.0542
18,COc1ccc(/C=C2\C(=O)NC(=O)N(C)C2=O)c2ccccc12,0.587
19,COc1ccc2[nH]c(SCC(=O)Nc3cc(C)on3)nc2c1,1.72
20,Cc1nn(Cc2ccccc2Cl)c(C)c1NC(=O)c1cc(-c2ccc3c(c2)OCO3)on1,-10.7
21,Cn1c(=O)c2ncn(CC(=O)Nc3cccc(O)c3)c2n(C)c1=O,-1.61
22,CCOc1ccc(CCNC(=O)Cn2nnc(-c3ccc(F)cc3)n2)cc1OCC,2.18
23,COc1cccc(C(=O)N2CCN(C(c3ccccc3)c3ccccc3)CC2)c1,-5.82
24,N#CCc1ccc(NC(=O)c2cccnc2Cl)cc1,2.17
25,CCCNC(=O)/C(=C/c1cn(S(=O)(=O)N(C)C)c2ccccc12)NC(=O)c1ccccc1OC,-0.0235
26,CCOc1ccc(NC(=O)CN(c2c(C)cccc2C)S(C)(=O)=O)cc1,-5.27

row,Structure (SMILES),% Inhibition @ 10 uM [%]
1,CC1=C(CCN2CCN(c3cccc(Cl)c3)CC2)C(C)(C)CCC1,-3.5
2,CC1=NN(c2ccccc2)C(=O)/C1=C\c1c(C)nn(-c2ccccc2)c1O,0.162
3,CC(NC(=O)c1cccc2ccccc12)c1ccccc1 (stereo not drawn),5.77
4,Cc1cc(C)c(C#N)c(SCc2ccccc2F)n1,40.7
5,CCn1c(NCc2ccc3c(c2)OCO3)nc2ccccc21,-1.88
6,Cc1cc(OCC(=O)N2CCC(C)CC2)ccc1Br,-3.33
7,CCc1nn(-c2cc(Oc3cccc(C)c3)ncn2)c(N)c1C#N,-5.34
8,CN(C)/C=C/C=C1C(=O)CCCC1=O,1.62
9,O=C(O)[C@H]1CCCC[C@H]1C(=O)Nc1ccc(S(=O)(=O)NC2CCCCC2)cc1,-4.31
10,N#Cc1c(SCc2ccccc2)nc2c(c1-c1cccs1)CCCC2,-0.216
11,Cc1nn(CCCC(=O)NCCCc2ccccc2)c(=O)c2cc3sccc3n12,0.137
12,CCOc1ccc(CCNC(=O)CCc2c(C)nc3c(c(C)nn3C(C)(C)C)c2C)cc1OCC,4.54
13,COc1cc(OC)c(OC)cc1/C=C1\N=C(c2ccc(C(C)(C)C)cc2)OC1=O,-9.58
14,CCC(Oc1ccccc1)C(=O)Nc1cccc(C)c1C (stereo not drawn),-5.82
15,Cc1cc(-c2ccc(NC(=O)c3ccncc3)c(C)c2)ccc1NC(=O)c1ccncc1,-3.18
16,OCCn1c(-c2ccc(Br)cc2)cn2c3ccccc3nc12,2.78
17,CN1C(=O)c2ccc3c4c(ccc(c24)C1=O)C(=O)N(C)C3=O,-4.82
18,CNc1ncnc(S)c1N,-0.615
19,O=C(NC1(C(F)(F)F)NC(=O)N(Cc2ccccc2)C1=O)c1ccco1 (stereo not drawn),-4.41
20,NC(=O)c1ccc(Br)c(S(=O)(=O)N2CCCCC2)c1,2.46
21,Nc1cc(N2CCOCC2)nc(Cl)n1,6.6
22,CC1=C(C(=O)Nc2ccccc2)C(c2ccccc2)n2c(s/c(=C/c3ccco3)c2=O)=N1 (stereo not drawn),-4.89
23,COc1ccc(CCNC(C)Cc2ccc(OC)cc2)cc1 (stereo not drawn),0.217
24,O=C(O)C(Cc1c[nH]c2ccccc12)Nc1ncnc2c1oc1ccccc12 (stereo not drawn),-1.72
25,Cc1oc(-c2ccc(Cl)cc2)cc1-c1nn2c(-c3ccco3)nnc2s1,-1.69
26,CC(=O)Nc1ccc(S(=O)(=O)N(C)c2ccccc2)cc1,5.15

row,Structure (SMILES),% Inhibition @ 10 uM [%]
1,CCC1CCCCN1CCCNC(=O)Cn1ccc2cc(S(=O)(=O)N3CCCCC3)ccc21 (stereo not drawn),-3.12
2,C=CCN1C(=O)N/C(=C/c2ccc(N3CCOCC3)o2)C1=O,2.19
3,O=C(NCCCN1CCCC1)c1cnn2c(C(F)(F)F)cc(-c3ccccc3)nc12,-4.06
4,Cc1cc(O)n2nc(-c3ccccc3)cc2n1,-5.48
5,CCOc1cc(C(=O)Nc2c(O)oc3ccccc3c2=O)cc(OCC)c1OCC,-5.37
6,Cc1ccc(CN2CCCCCCC2)o1,3.24
7,CC(NC(=O)C1CC(=O)N(c2ccc(Br)cc2)C1)c1ccccc1 (stereo not drawn),1.96
8,CCOC(=O)C1=C(CN2CC=C(c3ccccc3)CC2)NC(=O)NC1c1ccc(OC(C)C)cc1 (stereo not drawn),-1.03
9,Fc1ccccc1CN1CCN(c2ccc(Cl)cc2)CC1,3.1
10,Fc1cccc(CN2CCN(c3ccccc3)CC2)c1,-3.65
11,FC(F)(F)c1ccccc1CNCc1ccncc1,2.72
12,O=C(Cn1ncc2c3ccccc3n(Cc3cccc(Cl)c3)c2c1=O)NCc1ccccn1,3.4
13,Cc1ccccc1CN1CCN(c2ncccn2)CC1,-1.98
14,OC1CCCN(Cc2cccc(Cl)c2)C1 (stereo not drawn),-0.127
15,COc1nc(N2CCCC2)nc(N2CCCC2)n1,-0.424
16,Cc1cc(C)n2nc(N)c([N+](=O)[O-])c2n1,-6.99
17,Cc1nc(SCC(=O)C2CC2)c(C#N)c(C)c1C,0.98
18,COc1ccccc1-c1nc2ccccc2o1,-0.661
19,C[C@]12C[C@H](O)[C@@H]3c4ccc(O)cc4CCC3[C@@H]1CCC2=O (stereo partly drawn),-4
20,O=C(O)C1CC=CCC1C(=O)Nc1ccccc1Cl (stereo not drawn),-0.185
21,CC1CCCC(C)N1C(=O)Nc1cn(C)c(=O)c2ccccc12 (stereo not drawn),3.48
22,Cc1cc(C)c(C)c(S(=O)(=O)Nc2ccc(C(=O)NCc3ccccn3)cc2)c1C,4.11
23,CC(=O)c1cc2c(cc1NC(=O)CCC1CCCC1)OCO2,-8.36
24,CSc1cccc(/N=C2/S/C(=C/c3ccccc3OCC(=O)N3CCOCC3)C(=O)N2C)c1,2.84
25,Cc1ccc(CNC(=O)CC(c2cccs2)N2Cc3ccccc3C2=O)cc1 (stereo not drawn),-3.1
26,O=C(COc1ccccc1Cl)N(Cc1cccc(Cl)c1)Cc1ccco1,1.25

row,Structure (SMILES),% Inhibition @ 10 uM [%]
1,Cc1nn(Cc2ccc(C(=O)Nc3ccc(C(F)(F)F)cc3)o2)c(C)c1Br,2.44
2,COc1cccc(C(Nc2cc(C)ccn2)c2ccc3ccc(C)nc3c2O)c1 (stereo not drawn),-6.94
3,O=C1COc2c1c1c(c3oc(=O)ccc23)C(=O)CO1,4.47
4,c1ccc2c(c1)OCC(c1csc3ncnc(N4CCCC4)c13)O2 (stereo not drawn),-5.29
5,COc1ccccc1CN1CC(C)OC(C)C1 (stereo not drawn),-2.36
6,COc1ccc(-c2csc(/C(C#N)=C\c3cccnc3)n2)cc1,-12
7,COc1ccc2c(OC)c3ccoc3nc2c1OC,-0.687
8,O=C(NCc1ccccc1)c1ccc(CS(=O)c2ccccc2)o1 (stereo not drawn),-6.89
9,N#C/C(=C\c1ccc(Cl)cc1)c1nc(-c2ccccc2O)cs1,0.131
10,COc1cc(C2C(C#N)=C(N)Oc3[nH]nc(C(F)(F)F)c32)ccc1OCCN1CCOCC1 (stereo not drawn),-2.56
11,O=[N+]([O-])c1ccc(CN2CCN(c3cccc(C(F)(F)F)c3)CC2)cc1,-1.77
12,C(=N\n1cnnc1)/c1ccccc1,3.06
13,COc1cccc2c1CCc1c-2nc2ccccc2c1C(=O)O,3.68
14,CN1CC2=C(OC(N)=C(C#N)C2c2ccc(F)cc2)/C(=C/c2ccc(F)cc2)C1 (stereo not drawn),-4.67
15,COc1ccccc1N1CCN(C2CC(=O)N(c3ccc(C(C)=O)cc3)C2=O)CC1 (stereo not drawn),2.92
16,CCOc1ccc(CCNS(=O)(=O)c2ccc3[nH]c4c(c3c2)CCCC4)cc1OCC,-1.95
17,Cn1c(=O)c2c(ncn2Cc2ccc(C#N)cc2)n(C)c1=O,4.22
18,O=C(CNC1=NC(=O)C(c2ccccc2)(c2ccccc2)N1)NCc1ccc(F)cc1,4.53
19,COC(=O)c1nnn(-c2nonc2N)c1CN1CCC(C)CC1,14.6
20,CC(C)=CCCC(C)CN1CCC(O)CC1 (stereo not drawn),-2.95
21,COc1nc(Nc2ccc(C)cc2)nc(OC)n1,-4.35
22,CC(C)(C)n1ncc2c(=O)n(Cc3cccc4ccccc34)cnc21,-3.53
23,COc1ccccc1CNC(=O)c1ccc2nc3[nH]c4ccccc4c3nc2c1,-2.14
24,O=C(NCCc1cccs1)c1ccc(-n2c(-c3ccccc3)nc3cccnc32)cc1,-4.97
